Experimental data as given in PubChem BioAssay AID1508642 (National Center for Advancing Translational Sciences (NCATS), 2021).
Out of some 43,000 compounds screened, about 200 (0.47%) were called active. Inconclusive results (about 12%) are left out. Calls come from the whole dose curve; as a rule, active = well fitted cell-killing curve with a large enough effect; inconclusive = small, poorly fitted or top-dose-only effect, or effect the other way; inactive = flat fitted curve, though single readings scatter. The list shows a part of the results.

Assay: Cell viability qHTS assay in S16 Pmp22-F2sN cells; note: nearly all actives have a fitted effect of over 65% in size
Conditions: S16 Pmp22-F2sN Schwann cells viability, CellTiter-Glo, 24 h; series mostly up to 57.5 µM; activity change, negative = cytotoxicity: at the top concentration
Procedure, shortened: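 Used to flag compounds lowering reporter output through toxicity, this quantitative HTS measures ATP-based CellTiter-Glo luminescence in S16 Pmp22-F2sN Schwann cells after 24 h compound exposure at 37C.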
% is set by controls: 0 for no effect and ±100 for the full control effect; potency is the fitted concentration of half-maximal effect.

Row | Structure (SMILES) | activity change, negative = cytotoxicity | Potency
1 | Cc1ccc(OC(=O)CSc2nnc(-c3cccs3)o2)cc1C | inactive: 4.36% | 
2 | CCn1cc(C(=O)NCCc2ccc(OC)c(OC)c2)c(=O)c2cc(S(=O)(=O)N3CCC(C)CC3)ccc21 | inactive: -17.1% | 
3 | CCOc1ccc(-n2c(SCC(=O)N3CCCCCC3)nc3c([nH]c4ccccc43)c2=O)cc1 | inactive: 20.6% | 
4 | Cc1ccc(NC(=O)CCNS(=O)(=O)c2cccc3nonc23)cc1Cl | inactive: -0.471% | 
5 | Cc1cn2c(=O)cc(COC(=O)c3cccc(NC(=O)COc4ccccc4C)c3)nc2s1 | inactive: -2.18% | 
6 | Cc1ccc(Cc2nc3ccccc3nc2SCC(=O)N2CCCc3ccccc32)cc1 | inactive: 18% | 
7 | COc1ccc(-n2c(-c3ccc(C)cc3)cc3c2CC(C)(C)CC3=O)c(OC)c1 | inactive: -16.5% | 
8 | Cc1ccccc1C(=O)NCCc1csc(-c2ccc(C(F)(F)F)cc2)n1 | inactive: -20.7% | 
9 | CCOC(=O)CSc1nc(-c2ccc(Cl)cc2)cc(C(F)(F)F)c1C#N | inactive: -0.106% | 
10 | Cc1ccc(C(=O)Oc2c(S(=O)(=O)c3ccccc3)c(C)nn2-c2ccccc2)cc1 | inactive: 7.11% | 
11 | CN1C(=O)c2ccccc2Sc2ccc(NC(=O)NCc3cccc(Cl)c3)cc21 | inactive: -26.5% | 
12 | O=c1oc2cc(O)ccc2cc1-c1nnc(Nc2ccccc2F)s1 | inactive: 10.3% | 
13 | Cc1c(-c2nc(-c3ccccc3F)no2)nnn1-c1cc(F)ccc1F | inactive: 0.278% | 
14 | CCCNC(=O)C(C)n1nc(C)c2c(C)n(-c3ccccc3)nc2c1=O (stereo not given) | inactive: -0.823% | 
15 | Cc1ccc(CNC(=O)CSc2c3c(nc4cc(Cl)ccc24)CCCC3)cc1 | inactive: -1.21% | 
16 | COc1cccc(OCc2cc(=O)n3c(-c4ccccc4)csc3n2)c1 | inactive: 6.46% | 
17 | COc1nc(-c2ccccc2)ccc1-c1noc(-c2ccccc2Br)n1 | inactive: -9.44% | 
18 | CCN1CCN(C(=O)Cn2c(-c3cccs3)cc3ccccc32)CC1 | inactive: 1.21% | 
19 | CCOc1ccccc1CNC(=O)CCc1c(C)nn(-c2ccc(N3CCOCC3)nn2)c1C | inactive: -2.38% | 
20 | COc1ccc(N2CCN(S(=O)(=O)CCNC(=O)COc3ccccc3F)CC2)cc1 | inactive: -1.84% | 
21 | CCN(CC)S(=O)(=O)c1ccc(C(=O)NCCSc2c(-c3ccc(C)cc3)[nH]c3ccccc23)cc1 | inactive: -27.8% | 
22 | COC(=O)c1cccc(NC(=O)c2nsc3ccccc23)c1 | inactive: -15.6% | 
23 | COc1ccc(CCNC(=O)c2ccc3c(c2)N(Cc2ccccc2F)C(=O)c2ccccc2S3=O)cc1OC (stereo not given) | inactive: 0.471% | 
24 | COc1ccc(CNC(=O)Cn2nc(N3CCN(c4ccccc4)CC3)ccc2=O)c(OC)c1 | inactive: 1.73% | 

Row | Structure (SMILES) | activity change, negative = cytotoxicity | Potency
25 | COc1ccc(S(=O)(=O)c2c(SC)nn(CC(=O)Nc3cccc(C)c3C)c2N)cc1 | inactive: -0.53% | 
26 | Cc1ccc2c(c1)NC(=O)c1cccnc1O2 | inactive: 0.538% | 
27 | Cc1ccc(-c2nc(CS(=O)(=O)CC(=O)NCCc3ccccc3)c(C)o2)cc1 | inactive: 0.237% | 
28 | CCc1ccc(CN(Cc2ccco2)C(=O)COc2ccc(Cl)c(C)c2)cc1 | inactive: -10.7% | 
29 | CCn1cc(C(=O)NCc2ccc(C)cc2)c(=O)c2cc(S(=O)(=O)N(C)C3CCCCC3)ccc21 | inactive: -11.9% | 
30 | CCN(CC)c1nc2c(S(=O)(=O)c3cccc(Cl)c3)nnn2c2ccsc12 | inactive: -20.1% | 
31 | CC1=C(C(=O)Nc2ccccc2)C(c2ccncc2)n2nc(SCc3ccccc3F)nc2N1 (stereo not given) | inactive: 11.5% | 
32 | O=C(Nc1ccc(OCc2cc(=O)n3ccccc3n2)cc1)c1ccccc1Cl | inactive: 3.53% | 
33 | Cc1cc(C)n(-c2nc3cc(Cl)ccc3nc2Nc2ccc(CC(=O)O)cc2)n1 | inactive: 1.82% | 
34 | COC(=O)c1c(-c2cccs2)csc1NC(=O)c1ccc(OC)c(OC)c1 | inactive: -7.55% | 
35 | Cc1cccc(NC(c2ccccc2C)c2ccc3ccc(C)nc3c2O)n1 (stereo not given) | inactive: -22.6% | 
36 | COc1ccccc1CNC(=O)C1CCN(S(=O)(=O)c2ccc3c(ccn3C)c2)CC1 | inactive: -2.16% | 
37 | CCCCn1c(NCc2cc(Br)ccc2O)nc2ccccc21 | inactive: 6.59% | 
38 | COc1ccc(NC(=O)C2(c3cccs3)CCOCC2)cc1Cl | inactive: -2.06% | 
39 | COC(=O)c1ccccc1NC(=O)c1cc2nc(-c3ccccc3)cc(-c3ccccc3)n2n1 | inactive: 3.92% | 
40 | Cc1ccccc1C(=O)NCC(c1cccnc1)N1CCc2ccccc21 (stereo not given) | inactive: -18.5% | 
41 | CC(C)CN(CCCNC(=O)CN1C(=O)COc2ccc(S(=O)(=O)N3CCCCCC3)cc21)CC(C)C | inactive: 2.21% | 
42 | O=C1CC(=O)Nc2cc(S(=O)(=O)N3CCOc4ccccc43)ccc2N1 | inactive: 3.66% | 
43 | COc1cc(NC(=O)CSc2nc(C)c(C(=O)Nc3ccccc3)c(-c3ccc(OC)c(OC)c3)c2C#N)c(OC)cc1Cl | inactive: 5.45% | 
44 | COc1ccc(N2CC3=C(C2=O)C(c2ccc(Br)cc2)NC(=O)N3C)cc1 (stereo not given) | inactive: 11.1% | 
45 | COc1cccc(N2CCN(C(=O)c3c(C)oc4ncnc(N5CCCCC5)c34)CC2)c1 | inactive: 4.58% | 
46 | Cc1ccc(-c2nnc(Nc3ccc(O)cc3)c3ccccc23)cc1S(=O)(=O)NCc1nc2ccccc2[nH]1 | inactive: 0.0906% | 
47 | Nc1c(C(=O)Nc2cccc(Cl)c2)sc2nc3c(cc12)CN(Cc1ccccc1)CC3 | inactive: -6.3% | 
48 | CCOCCCn1c(=N)c(S(=O)(=O)c2ccc(C)cc2)cc2c(=O)n3ccccc3nc21 | inactive: -30% | 

Row | Structure (SMILES) | activity change, negative = cytotoxicity | Potency
49 | CCOC(=O)c1c(NC(=O)C(C)Sc2cn(CCNC(=O)c3ccc(OC)c(OC)c3)c3ccccc23)sc2c1CCC2 (stereo not given) | inactive: 1.87% | 
50 | CC(C)NC(=O)c1ccc(Cn2c(=O)c3cccn3c3cccnc32)cc1 | inactive: -0.207% | 
51 | COc1ccc(CC(=O)NC2CC(=O)N(c3ccc4c(c3)OCCO4)C2)cc1 (stereo not given) | inactive: 12.9% | 
52 | CCOC(=O)c1c(C)oc2nc(C)nc(NCc3ccc(C)cc3)c12 | inactive: 9.24% | 
53 | CCN1CCN(Cc2c(O)ccc3c(=O)c(Oc4ccccc4Cl)c(C(F)(F)F)oc23)CC1 | inactive: -3.5% | 
54 | COCCCNc1nc2c(-c3ccccc3)nnn2c2ccccc12 | inactive: 18% | 
55 | O=C(CSc1nncn2c1cc1sccc12)Nc1ccccc1C(F)(F)F | inactive: 1.26% | 
56 | COc1ccc2nc3sc(C(=O)Nc4cc(Cl)c(OC)cc4OC)cc3cc2c1 | inactive: 2.77% | 
57 | CC1=C(c2ccc(C)cc2)S(=O)(=O)N=C1N1CCN(c2ccccc2)CC1 | inactive: -2.5% | 
58 | Cc1ccc2nc(-c3ccncc3)c(Nc3ccccc3C)n2c1 | inactive: -0.651% | 
59 | Cc1ccc(CSC2=Nc3ccccc3C3=NC(CC(=O)NC4CCCCC4)C(=O)N23)c(C)c1 (stereo not given) | inactive: 0.995% | 
60 | Cc1cc(C)cc(NC(=O)CN2C(=O)COc3ccc(S(=O)(=O)Nc4ccccc4)cc32)c1 | inactive: -0.675% | 
61 | Cc1cn(C)c(CC(=O)NCc2ccc(F)cc2)c1C(=O)O | inactive: -1.35% | 
62 | COc1ccc2c(c1)c1c(c(=O)n(-c3cccc(C)c3)c(=O)n1CC(=O)Nc1c(C)cc(C)cc1C)n2C | inactive: 1.66% | 
63 | CCc1cccc(NC(=O)CNS(=O)(=O)c2ccc3nc(C)sc3c2)c1 | inactive: -18.3% | 
64 | CCOC(=O)c1ccccc1NC(=O)CSc1nc2ncccc2o1 | inactive: 8.39% | 
65 | CNS(=O)(=O)c1cn(CC(=O)N2CCN(c3ccc(OC)cc3)CC2)cc1S(=O)(=O)NC | inactive: 6.18% | 
66 | Cc1ccc(NS(=O)(=O)c2ccc3c4c(cccc24)C(=O)N3)c(C)c1 | inactive: 2.7% | 
67 | CN(Cc1ccccc1)S(=O)(=O)c1ccc(F)c(C(=O)Nc2ccccc2C(F)(F)F)c1 | inactive: -0.826% | 
68 | Cc1ccc(C(NC(=O)Cc2cccs2)C(=O)Nc2ccc(C(C)C)cc2)cc1 (stereo not given) | inactive: -2.45% | 
69 | Cc1cccc(-c2nc3c4ccccc4nc(NCc4ccccc4Cl)n3n2)c1 | inactive: -0.822% | 
70 | Cc1cc(Nc2cccc(C(F)(F)F)c2)ncn1 | inactive: 0.458% | 
71 | Cc1c(C(=O)OC2CCCC2)[nH]c2c1C(=O)CC(c1ccc(C(C)(C)C)cc1)C2 (stereo not given) | inactive: 13% | 
72 | CC(C)(C)C1CCc2c(sc(NC(=O)c3cccc(Cl)c3)c2C(N)=O)C1 (stereo not given) | inactive: 1.81% | 

Row | Structure (SMILES) | activity change, negative = cytotoxicity | Potency
73 | COc1cccc(CNC(=O)CN2C(=O)CSc3ccc(S(=O)(=O)N(C)C)cc32)c1 | inactive: 4.9% | 
74 | Cc1ccc(-c2nc3sccn3c2Nc2ccccc2C)cc1 | inactive: -3.21% | 
75 | CC1CCN(C(=O)c2cnn(-c3ccc(Cl)cc3)c2C2CCN(C(=O)OC(C)(C)C)CC2)CC1 | inactive: 7.97% | 
76 | Cc1cccc(N2CCN(C(=O)c3nn(C)c4c3CSc3ccccc3-4)CC2C)c1 (stereo not given) | inactive: 18.7% | 
77 | CSCCC(NS(=O)(=O)c1ccc2c(c1)oc(=O)n2C)C(=O)N1CCN(c2cc(Cl)ccc2C)CC1 (stereo not given) | inactive: -5.16% | 
78 | CCC(=O)Oc1c(Sc2ccc(Cl)cc2)c(C)nn1C(C)(C)C | inactive: -2.04% | 
79 | COc1ccc(NC(=O)CSc2oc(-c3ccc(C)cc3)nc2S(=O)(=O)c2ccc(C)cc2)c(OC)c1 | inactive: 0.0348% | 
80 | CCN(CCCNC(=O)c1cc2cc3cc(OC)ccc3nc2s1)c1cccc(C)c1 | inactive: 4.69% | 
81 | COc1ccc(-c2nn(C)c3sc(C(=O)N4CCN(c5ccccc5F)CC4)cc23)cc1OC | inactive: -0.852% | 
82 | Cc1ccccc1OCCSc1nc(C)c(Cc2ccccc2)c(=O)[nH]1 | inactive: 14.3% | 
83 | Cc1cccc2c1-c1sc(C(=O)NCCc3ccc(Cl)cc3)cc1CO2 |  | active: 31.6 µM
84 | Cc1ccc(-c2[nH]c3ccccc3c2SCCNC(=O)c2ccc(S(=O)(=O)N3CCOCC3)cc2)cc1 | inactive: -8.14% | 
85 | COc1ccc(NC(=O)c2c(N)c(C(=O)c3ccc(C)cc3)n3ccccc23)cc1OC | inactive: 18.8% | 
86 | Cc1ccc(C)c(CN2C(=O)c3ccccc3Sc3ccc(C(=O)NCc4cccs4)cc32)c1 | inactive: -8.66% | 
87 | O=C(CCc1ccccc1)NCCc1csc(-c2cccc(F)c2)n1 | inactive: 5.42% | 
88 | Cc1ccc(C)c(NC(=O)C2CCN(c3nn4c(=O)cc(C)nc4s3)CC2)c1 | inactive: 25.1% | 
89 | CCN1CCN(Cc2nc3cc(NC(=O)c4ccccc4[N+](=O)[O-])ccc3n2CC)CC1 | inactive: -1.57% | 
90 | O=C(Nc1c(C(=O)N2CCC(N3CCCCC3)CC2)oc2ccccc12)c1c(F)cccc1F | inactive: -0.578% | 
91 | Cn1cc(S(=O)(=O)c2ccccc2)c(=O)c2cc(F)c(N3CCN(c4ccc(F)cc4)CC3)cc21 | inactive: -1.08% | 
92 | Cc1ccc(-c2nnc(Nc3ccc(Cl)cc3)c3ccccc23)cc1S(=O)(=O)N1CCOCC1 | inactive: -22.7% | 
93 | CN(C)S(=O)(=O)c1ccc2c(c1)N(CC(=O)N1CCCCC1)CCS2 | inactive: 28.2% | 
94 | Cc1ccc(-n2ncc3c(Nc4cccc(C)c4)ncnc32)cc1 | inactive: -1% | 
95 | COc1cccc(-n2c(SCC(=O)N3CCCCC3)nc3c([nH]c4ccccc43)c2=O)c1 | inactive: 7.73% | 
